Laboratory results taken from PubChem BioAssay AID360 (National Center for Advancing Translational Sciences (NCATS), 2006).
Screen size: about 48,000 compounds; about 550 (1.1%) were called active. About 4% were inconclusive and are not listed. No stated cut-off is given here; in the data, active means potency below about 15 µM; inconclusive means mostly about 16 µM to 33 µM; inactive means weaker than that. The list shows a part of the results.

Target: Lysosomal acid glucosylceramidase (Homo sapiens) (UniProt P04062)
UniProt P04062, sequence (P04062 whole entry, looked up): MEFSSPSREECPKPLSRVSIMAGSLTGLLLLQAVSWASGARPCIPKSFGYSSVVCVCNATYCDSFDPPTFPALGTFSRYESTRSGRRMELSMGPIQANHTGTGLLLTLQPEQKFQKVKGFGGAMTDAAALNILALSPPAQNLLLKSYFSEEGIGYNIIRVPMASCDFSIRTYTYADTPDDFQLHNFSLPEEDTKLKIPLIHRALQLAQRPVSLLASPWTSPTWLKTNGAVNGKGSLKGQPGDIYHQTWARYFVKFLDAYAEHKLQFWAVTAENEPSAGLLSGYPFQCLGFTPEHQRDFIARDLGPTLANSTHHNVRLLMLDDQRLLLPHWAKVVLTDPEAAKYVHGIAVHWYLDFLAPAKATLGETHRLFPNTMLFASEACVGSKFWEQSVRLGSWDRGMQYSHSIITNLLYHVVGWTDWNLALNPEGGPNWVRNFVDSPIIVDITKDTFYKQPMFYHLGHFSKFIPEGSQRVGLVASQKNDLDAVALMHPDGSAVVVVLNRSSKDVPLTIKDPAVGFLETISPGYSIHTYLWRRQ
Assay: Glucocerebrosidase;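 further: the screen sought inhibitors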
Details: purified enzyme, resorufin glucoside fluorescence (screen aimed at inhibitors), 20 min; series mostly up to 77 µM
Procedure, shortened: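 Normal human glucocerebrosidase (0.2 nM final) was assayed with resorufin β-D-glucopyranoside (30 uM final) in 50mM citric acid/KH2PO4, 10mM sodium taurocholate, 0.01% tween-20, pH 5.9. Compounds were titrated; fluorescence (Ex 548, Em 600) read after 20 min at RT.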
Potency means the concentration at half of the fitted maximal effect.

Potency, inactive:
COc1ccc(NC(=O)C(CCS(C)(=O)=O)NC(C)=O)cc1 (stereo not drawn) > 76.9 µM
COC(=O)c1cc(NCc2ccccc2F)ccc1N1CCOCC1 > 76.9 µM
Cn1nc(SCC(=O)O)sc1=S > 76.9 µM
O=C(CSc1ncnc2c1oc1ccccc12)Nc1cccc(Cl)c1 > 76.9 µM
COc1ccc(Nc2nc(N)nc(C(F)(F)F)n2)c(OC)c1 > 76.9 µM
CC(C)(C)OC(=O)NCC(=O)N1CCC(C(=O)O)CC1 > 76.9 µM
CCOc1ccc(CNc2ccc(N3CCCC3)cc2)cc1 > 76.9 µM
O=C(NCc1ccc2c(c1)OCO2)C1CC(=O)N(C2CCCCCC2)C1 (stereo not drawn) > 76.9 µM
Cc1cc(Oc2ccccc2)nc(-c2ccccc2O)n1 > 76.9 µM
CCOC(=O)C1CCN(C(=O)CCNC(=O)Cn2ccc3ccccc3c2=O)CC1 > 76.9 µM
C=CCn1c(SCC(=O)N2CCCC2)nc2cc(C(=O)NCC3CCCO3)ccc2c1=O (stereo not drawn) > 76.9 µM
CCc1nc(N2CCCCC2C)c2oc3ccccc3c2n1 (stereo not drawn) > 76.9 µM
O=C(CCS(=O)(=O)c1cccc2nonc12)N1CCCc2ccccc21 > 76.9 µM
O=C(CCN1C(=O)C2CC=C(Cl)CC2C1=O)N1CCCCC1 (stereo not drawn) > 76.9 µM
Cc1cc(C)nc(SCCS(=O)Cc2ccc(Cl)cc2)n1 (stereo not drawn) > 76.9 µM
Cc1ccc(CN(C)C(=O)c2ccccc2Oc2ccccc2)o1 > 76.9 µM
CCC1(CC)C(=O)NC(=O)NC1=NCCc1ccc(O)cc1 > 76.9 µM
CCOC(=O)c1cc(OC(=O)c2cccnc2)n(-c2ccccc2)n1 > 76.9 µM
CCC(C)OC(=O)C1=C(C)NC(=O)CC1c1ccccc1OC (stereo not drawn) > 76.9 µM
Cc1onc(-c2c(F)cccc2Cl)c1C(=O)NCCCN1CCOCC1 > 76.9 µM
COc1ccc(N2C(=O)CC(Cc3ccccc3)C2=O)cc1 (stereo not drawn) > 76.9 µM
COc1ccc(-c2nc(N3CCCC3)[nH]c(=O)c2C#N)cc1 > 76.9 µM
Cc1cccc(NC(=O)c2cc(NC(=O)c3ccco3)ccc2N2CCCCC2)c1 > 76.9 µM
CC(=O)Nn1c(-c2ccccc2)cc2ccccc21 > 76.9 µM
O=C(NCc1ccc2c(c1)OCO2)c1cccc(Cl)c1 > 76.9 µM
CC(=O)Nc1ccc(S(=O)(=O)N2CCCc3ccccc32)cc1 > 76.9 µM
COCCSc1nnc(NC(=O)Cc2cccs2)s1 > 76.9 µM
COc1ccccc1NC(=O)N1CCN(c2cc(-c3ccccc3)nc3ncnn23)CC1 > 76.9 µM
CCCCn1c(SCC(=O)Nc2cc(C)on2)nc2ccsc2c1=O > 76.9 µM
CC1CCN(Cc2nc3c(c(=O)n(C)c(=O)n3C)n2CCCc2ccccc2)CC1 > 76.9 µM
CCOC(=O)C1(C)NC(c2ccc(N(C)C)cc2)C2C(=O)N(CC)C(=O)C21 (stereo not drawn) > 76.9 µM
COc1cccc(-c2cc(C(=O)NCCc3ccccc3)no2)c1 > 76.9 µM
CCNC(=O)N1c2ccc(OCC)cc2C(C)=CC1(C)C > 76.9 µM
COc1ccc(Nc2ncc3c(n2)CC(c2ccccc2)CC3=O)cc1 (stereo not drawn) > 76.9 µM
Cc1ccc(C2NC(=O)c3ccccc3N2)s1 (stereo not drawn) > 76.9 µM
Cc1ccc(C2NC(=O)NC3=C2CCc2ccccc23)cc1 (stereo not drawn) > 76.9 µM
Cc1ccc(S(=O)(=O)Nc2nc3ccccc3nc2NCc2ccco2)cc1 > 76.9 µM
Cc1nn(CCC#N)c2nc(C(F)(F)F)[nH]c(=O)c12 > 76.9 µM
O=C(CCn1c(=O)sc2ccccc21)Nc1ccon1 > 76.9 µM
O=C(Nc1nnc(CC2=CCCCC2)s1)c1cccs1 > 76.9 µM
O=C(O)CSc1sc(=S)sc1SCC(=O)O > 76.9 µM
O=C(CSc1ncn(-c2ccccc2)n1)N1CCN(c2ccccc2)CC1 > 76.9 µM
CCCCN(Cc1cc2cc(OC)ccc2[nH]c1=O)C(=O)c1ccccn1 > 76.9 µM
COC(=O)CSc1nnc(CNC(=O)c2ccco2)n1-c1ccc(F)cc1 > 76.9 µM
O=S(=O)(CCOc1ccccc1)c1nc2ccccc2[nH]1 > 76.9 µM
CC(=O)Nc1nc(N2C(=O)c3ccccc3C2=O)n(-c2ccccc2)n1 > 76.9 µM
CCOc1ccc(-c2[nH]nc3c2C(c2cccnc2)C(C#N)=C(N)O3)cc1 (stereo not drawn) > 76.9 µM
CCN(CC)C(=O)N1CCN(C(=O)c2ccc(C)cn2)CC1 > 76.9 µM
COc1cccc(N2CC34C=CC(O3)C(C(=O)O)C4C2=O)c1 (stereo not drawn) > 76.9 µM
Cc1cc(N2CCOCC2)cc(C)[n+]1[O-] > 76.9 µM
C#CCN1C(=O)C2C(C(=O)NC)C3C=CC2(O3)C1C(=O)NCc1ccc(OC)cc1 (stereo not drawn) > 76.9 µM
O=C(CCn1c(=O)sc2ccccc21)Nc1nccs1 > 76.9 µM
COc1ccc2nc(SCC(=O)N3CCNC3=O)[nH]c2c1 > 76.9 µM
CC1CCN(C(c2ccc(N(C)C)cc2)c2nnnn2C(C)(C)C)CC1 (stereo not drawn) > 76.9 µM
Cc1nn2c(-c3ccccc3)c(-c3ccccc3)nc2[nH]c1=O
CN(Cc1ccco1)C(=O)c1ccc(N2CCCC2=O)cc1 > 76.9 µM
CCc1c(C#N)c(SCc2c(C)noc2C)nc2c1C(=O)CC(C)(C)C2 > 76.9 µM
O=C(CSc1ncccn1)NCc1ccc(F)cc1 > 76.9 µM
O=C(Cn1nc(C(F)(F)F)c2c1CCCC2)Nc1ccc2c(c1)OCO2 > 76.9 µM
N=c1c(C(=O)NCc2ccccc2)cc2c(=O)n3ccccc3nc2n1CCCN1CCOCC1 > 76.9 µM
CC1CN(S(=O)(=O)c2cccs2)CC(C)O1 (stereo not drawn) > 76.9 µM
O=c1c2c(nc3nc(SCc4ccccc4)[nH]n13)CCC2 > 76.9 µM
CCc1nc2nc(C)cc(Nc3cccc(C(F)(F)F)c3)n2n1 > 76.9 µM
COCCOc1nc2c(c(=O)n(C)c(=O)n2C)n1CCc1ccccc1 > 76.9 µM
COC(=O)c1cc2c(=O)n3ccccc3nc2n(C)c1=N > 76.9 µM
O=S(=O)(NCCOC12CC3CC(CC(C3)C1)C2)c1cccc2nsnc12 > 76.9 µM
Cc1cc(=O)n2nc(N3CCC(C(=O)NC4CCCc5ccccc54)CC3)sc2n1 (stereo not drawn) > 76.9 µM
CC1c2[nH]c3ccccc3c2CCN1C(=O)Nc1ccccc1 (stereo not drawn) > 76.9 µM
Brc1cc(Br)c2ncnc(N3CCCCC3)c2c1 > 76.9 µM
CCOc1ccc(CN(C(=O)c2ccco2)C2CCS(=O)(=O)C2)cc1 (stereo not drawn) > 76.9 µM
COc1ccc(NC(=O)CSc2nc3c(c(=O)n2-c2ccc(C)cc2)SCC3)c(OC)c1 > 76.9 µM
COCCn1c(SCc2nc3ccccc3s2)nc2ccccc21 > 76.9 µM
COC(=O)c1ccc(OC(=O)C2CC(=O)N(c3cccc(C)c3)C2)cc1 (stereo not drawn) > 76.9 µM
COc1ccc(OC)c(NC(=O)c2cc(-c3cc(Cl)ccc3O)n[nH]2)c1 > 76.9 µM
COc1ccc(CCNC(=O)COc2ccc(S(=O)(=O)N3CCOCC3)cc2)cc1OC > 76.9 µM
O=C(Nc1ccccc1C(F)(F)F)c1ccc(F)c(S(=O)(=O)N2CCOCC2)c1 > 76.9 µM
C=CCn1c(SCC(=O)NCC(=O)OCC)nnc1-c1ccccn1 > 76.9 µM
O=C(CSc1nnnn1C1CCCC1)Nc1ccc2c(c1)OCO2 > 76.9 µM
O=C(CSc1nnc(-c2ccc3c(c2)OCCO3)o1)N1CCCC1 > 76.9 µM
COc1ccccc1-c1noc(-c2ccccc2C(=O)Nc2ccccc2)n1 > 76.9 µM
CN(c1ccc(C(=O)Nc2cccnc2)cc1)S(C)(=O)=O > 76.9 µM
C(=N\C(/N=C/c1ccco1)c1ccco1)/c1ccco1 > 76.9 µM
COc1ccc(C2(O)CCN(C(=O)c3c(F)cccc3F)CC2)cc1 > 76.9 µM
CCCc1cc(N2CCCC(C(=O)Nc3cc(Cl)ccc3OC)C2)n2ncnc2n1 (stereo not drawn) > 76.9 µM
O=C(c1ccc(F)cc1)N1CCN(C2CC3CCC2C3)CC1 (stereo not drawn) > 76.9 µM
C=C(C)CSc1nnc(-c2ccccc2)n1N > 76.9 µM
O=C(CCCOc1ccc(Cl)cc1)N1CCOCC1 > 76.9 µM
CCC(=O)Nc1ccc2nc(SCC(=O)N3CCCC3)sc2c1 > 76.9 µM
Cc1[nH]c2ccccc2c1C(c1ccccn1)N1CCC(C(N)=O)CC1 (stereo not drawn) > 76.9 µM
COC(=O)c1ccc2c(=O)n(Cc3ccco3)c(SCC(=O)Nc3ccccc3Cl)nc2c1 > 76.9 µM
CCCOc1ccc(C(=O)c2nc3c(n2O)CCCC3)cc1 > 76.9 µM
Cc1cc(C)n(-c2cccc3cccnc23)n1 > 76.9 µM
COc1ccc(C(=O)N(CC(=O)NC(C)(C)C)c2ccc3c(c2)OCCO3)cc1OC > 76.9 µM
